{"source": "the supplement of paper PMC8728848", "binders": {"B1": {"name": "PkBDPgamma (Plasmodium knowlesi) (protein)", "chain": "SAINQIFLQNNVMDKCNDKRKRGERDWDCPTEKDVCIPDRRYQLCMMEITNLVDTDTHFHSDIIFRKSYSRRRLIYDVGGRGDLLLKKYNNVYSEDLCKDIKWSLQDFGDIIMGTDMEGIGYSLVVQNNLRSIFGTGTSAELDRKKWWNDHKKDIWKAMILSVKEKNRYSAWNCKEDVQIKVEPQIYRWIREWGRDYMSEFREQRRKLNEKCEDKLYYSTMLICTLPPCNNACKSYDEWITGKKKQWDVLSTKFSSVKKAQKIETENIARAYDILKQELNGFNEVTFENEINKRDKLYNYFCVCIVQEARKNTQENVKNVGSGVESKAPSSNPINEAVKSSSGEGKVQEDSAHRSVNEGEGKSSTNEADPGSQPGAAASGGGSGGGTGGGVDLAPQMLRELQETNAALQDVRELLRQQVKEITFLKNTVMECDACGGPLDRNLPPLAPLGPTGGWSHPQFEK"}}, "assay_in_all_cases": "glycan array binding signal (z-score within array); higher = stronger binding", "conditions_in_all_cases": "glycan notation: IUPAC condensed, linker removed", "key": {"[1]": {"biological_target": "Fuc(a1-2)[GalNAc(b1-3)]Gal", "outline": "(§1)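 Negative Z-scores can be read as non-binding. The Z-score is calculated within each array and then averaged across arrays of one protein sequence at different concentrations or buffers and across linkers. Arrays, 3228 in all, were curated from the Consortium for Functional Glycomics database and kept only where the protein sequence was available.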"}, "Fuc(a1-3)GlcNAc": {"biological_target": "Fuc(a1-3)GlcNAc", "outline": "as §1"}, "[2]": {"biological_target": "Fuc(a1-3)[Gal(b1-4)]Glc6S", "outline": "as §1"}, "[3]": {"biological_target": "Fuc(a1-3)[Gal(b1-4)]GlcNAc", "outline": "as §1"}, "[4]": {"biological_target": "Fuc(a1-3)[Gal(b1-4)]GlcNAc(b1-2)Man", "outline": "as §1"}, "[5]": {"biological_target": "Fuc(a1-3)[Gal(b1-4)]GlcNAc(b1-2)Man(a1-3)[Fuc(a1-3)[Gal(b1-4)]GlcNAc(b1-2)Man(a1-6)]Man(b1-4)GlcNAc(b1-4)GlcNAc", "outline": "as §1"}, "[6]": {"biological_target": "Fuc(a1-3)[Gal(b1-4)]GlcNAc(b1-2)Man(a1-3)[Fuc(a1-3)[Gal(b1-4)]GlcNAc(b1-2)Man(a1-6)]Man(b1-4)GlcNAc(b1-4)[Fuc(a1-6)]GlcNAc", "outline": "as §1"}, "[7]": {"biological_target": "Fuc(a1-3)[Gal(b1-4)]GlcNAc(b1-3)Gal(b1-3)[Fuc(a1-4)]GlcNAc", "outline": "as §1"}, "[8]": {"biological_target": "Fuc(a1-3)[Gal(b1-4)]GlcNAc(b1-3)Gal(b1-4)[Fuc(a1-3)]GlcNAc", "outline": "as §1"}, "[9]": {"biological_target": "Fuc(a1-3)[Gal(b1-4)]GlcNAc(b1-3)Gal(b1-4)[Fuc(a1-3)]GlcNAc(b1-3)Gal(b1-4)[Fuc(a1-3)]GlcNAc", "outline": "as §1"}, "[10]": {"biological_target": "Fuc(a1-3)[Gal(b1-4)]GlcNAc(b1-3)GalNAc", "outline": "as §1"}, "[11]": {"biological_target": "Fuc(a1-3)[Gal(b1-4)]GlcNAc(b1-6)GalNAc", "outline": "as §1"}, "[12]": {"biological_target": "Fuc(a1-3)[Gal(b1-4)]GlcNAc(b1-6)[Gal(b1-3)GlcNAc(b1-3)]Gal(b1-4)Glc", "outline": "as §1"}, "[13]": {"biological_target": "Fuc(a1-3)[Gal(b1-4)]GlcNAc6S", "outline": "as §1"}, "[14]": {"biological_target": "Fuc(a1-3)[Gal3S(b1-4)]Glc", "outline": "as §1"}, "[15]": {"biological_target": "Fuc(a1-3)[Gal3S(b1-4)]GlcNAc", "outline": "as §1"}, "[16]": {"biological_target": "Fuc(a1-3)[Gal3S(b1-4)]GlcNAc6S", "outline": "as §1"}, "[17]": {"biological_target": "Fuc(a1-3)[GalNAc(b1-4)]GlcNAc", "outline": "as §1"}, "[18]": {"biological_target": "Fuc(a1-3)[GalNAc(b1-4)]GlcNAc6S", "outline": "as §1"}, "Fuc(a1-4)GlcNAc": {"biological_target": "Fuc(a1-4)GlcNAc", "outline": "as §1"}, "Fuc(b1-3)GlcNAc": {"biological_target": "Fuc(b1-3)GlcNAc", "outline": "as §1"}, "Gal(a1-2)Gal": {"biological_target": "Gal(a1-2)Gal", "outline": "as §1"}, "Gal(a1-3)Gal": {"biological_target": "Gal(a1-3)Gal", "outline": "as §1"}, "Gal(a1-3)Gal(b1-3)GlcNAc": {"biological_target": "Gal(a1-3)Gal(b1-3)GlcNAc", "outline": "as §1"}, "[19]": {"biological_target": "Gal(a1-3)Gal(b1-3)GlcNAc(b1-2)Man", "outline": "as §1"}, "[20]": {"biological_target": "Gal(a1-3)Gal(b1-3)GlcNAc(b1-2)Man(a1-3)[Gal(a1-3)Gal(b1-3)GlcNAc(b1-2)Man(a1-6)]Man(b1-4)GlcNAc(b1-4)GlcNAc", "outline": "as §1"}, "[21]": {"biological_target": "Gal(a1-3)Gal(b1-3)GlcNAc(b1-3)GalNAc", "outline": "as §1"}, "[22]": {"biological_target": "Gal(a1-3)Gal(b1-3)GlcNAc(b1-6)GalNAc", "outline": "as §1"}, "[23]": {"biological_target": "Gal(a1-3)Gal(b1-3)[Fuc(a1-4)]GlcNAc(b1-2)Man(a1-3)[Gal(a1-3)Gal(b1-3)[Fuc(a1-4)]GlcNAc(b1-2)Man(a1-6)]Man(b1-4)GlcNAc(b1-4)GlcNAc", "outline": "as §1"}, "Gal(a1-3)Gal(b1-4)Glc": {"biological_target": "Gal(a1-3)Gal(b1-4)Glc", "outline": "as §1"}}, "note": "Some of the results follow."}
{"binder": "B1", "values": [{"measurement": "glycan array binding signal (z-score)", "setting": "[1]", "value": 0.501}, {"measurement": "glycan array binding signal (z-score)", "setting": "Fuc(a1-3)GlcNAc", "value": 0.556}, {"measurement": "glycan array binding signal (z-score)", "setting": "[2]", "value": 0.195}, {"measurement": "glycan array binding signal (z-score)", "setting": "[3]", "value": 0.125}, {"measurement": "glycan array binding signal (z-score)", "setting": "[4]", "value": -0.376}, {"measurement": "glycan array binding signal (z-score)", "setting": "[5]", "value": -0.703}, {"measurement": "glycan array binding signal (z-score)", "setting": "[6]", "value": -0.248}, {"measurement": "glycan array binding signal (z-score)", "setting": "[7]", "value": -0.519}, {"measurement": "glycan array binding signal (z-score)", "setting": "[8]", "value": -0.046}, {"measurement": "glycan array binding signal (z-score)", "setting": "[9]", "value": -0.29}, {"measurement": "glycan array binding signal (z-score)", "setting": "[10]", "value": 0.185}, {"measurement": "glycan array binding signal (z-score)", "setting": "[11]", "value": -0.182}, {"measurement": "glycan array binding signal (z-score)", "setting": "[12]", "value": -0.449}, {"measurement": "glycan array binding signal (z-score)", "setting": "[13]", "value": -0.407}, {"measurement": "glycan array binding signal (z-score)", "setting": "[14]", "value": 0.269}, {"measurement": "glycan array binding signal (z-score)", "setting": "[15]", "value": -0.608}, {"measurement": "glycan array binding signal (z-score)", "setting": "[16]", "value": -0.001}, {"measurement": "glycan array binding signal (z-score)", "setting": "[17]", "value": -0.118}, {"measurement": "glycan array binding signal (z-score)", "setting": "[18]", "value": -0.242}, {"measurement": "glycan array binding signal (z-score)", "setting": "Fuc(a1-4)GlcNAc", "value": -0.191}, {"measurement": "glycan array binding signal (z-score)", "setting": "Fuc(b1-3)GlcNAc", "value": -0.411}, {"measurement": "glycan array binding signal (z-score)", "setting": "Gal(a1-2)Gal", "value": -0.098}, {"measurement": "glycan array binding signal (z-score)", "setting": "Gal(a1-3)Gal", "value": -0.09}, {"measurement": "glycan array binding signal (z-score)", "setting": "Gal(a1-3)Gal(b1-3)GlcNAc", "value": 0.15}, {"measurement": "glycan array binding signal (z-score)", "setting": "[19]", "value": -0.129}, {"measurement": "glycan array binding signal (z-score)", "setting": "[20]", "value": 0.486}, {"measurement": "glycan array binding signal (z-score)", "setting": "[21]", "value": -0.118}, {"measurement": "glycan array binding signal (z-score)", "setting": "[22]", "value": 0.024}, {"measurement": "glycan array binding signal (z-score)", "setting": "[23]", "value": -0.502}, {"measurement": "glycan array binding signal (z-score)", "setting": "Gal(a1-3)Gal(b1-4)Glc", "value": -0.045}]}
